Assay results from PubChem BioAssay AID588591 (National Center for Advancing Translational Sciences (NCATS), 2011).
In all, about 390,000 compounds went through this assay and about 4,700 (1.2%) were called active. About 4% were inconclusive and are not listed. Calls come from the whole dose curve; as a rule, active = well fitted inhibition curve with a large enough effect; inconclusive = small, poorly fitted or top-dose-only effect, or another doubt; inactive = no such curve, though single readings can be large or run the other way. The entries are a selection whose mix differs from that of the whole data set.

molecular target: DNA polymerase eta (Homo sapiens) (UniProt Q9Y253); assay: qHTS for Inhibitors of Polymerase Eta; settings: recombinant Pol eta, fluorescent DNA replication assay; series mostly up to 114 µM; activity change, negative = inhibition: at the top concentration
Method in brief: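 Fluorescent replication assay: 50 nM final substrate added after a 15 min room-temperature compound preincubation with 10 nM enzyme. Signal taken at 0 min and again at 10 min.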
% is set by controls: 0 for no effect and ±100 for the full control effect; potency is the fitted concentration of half-maximal effect.

UniProt Q9Y253, sequence (Q9Y253 whole entry, looked up): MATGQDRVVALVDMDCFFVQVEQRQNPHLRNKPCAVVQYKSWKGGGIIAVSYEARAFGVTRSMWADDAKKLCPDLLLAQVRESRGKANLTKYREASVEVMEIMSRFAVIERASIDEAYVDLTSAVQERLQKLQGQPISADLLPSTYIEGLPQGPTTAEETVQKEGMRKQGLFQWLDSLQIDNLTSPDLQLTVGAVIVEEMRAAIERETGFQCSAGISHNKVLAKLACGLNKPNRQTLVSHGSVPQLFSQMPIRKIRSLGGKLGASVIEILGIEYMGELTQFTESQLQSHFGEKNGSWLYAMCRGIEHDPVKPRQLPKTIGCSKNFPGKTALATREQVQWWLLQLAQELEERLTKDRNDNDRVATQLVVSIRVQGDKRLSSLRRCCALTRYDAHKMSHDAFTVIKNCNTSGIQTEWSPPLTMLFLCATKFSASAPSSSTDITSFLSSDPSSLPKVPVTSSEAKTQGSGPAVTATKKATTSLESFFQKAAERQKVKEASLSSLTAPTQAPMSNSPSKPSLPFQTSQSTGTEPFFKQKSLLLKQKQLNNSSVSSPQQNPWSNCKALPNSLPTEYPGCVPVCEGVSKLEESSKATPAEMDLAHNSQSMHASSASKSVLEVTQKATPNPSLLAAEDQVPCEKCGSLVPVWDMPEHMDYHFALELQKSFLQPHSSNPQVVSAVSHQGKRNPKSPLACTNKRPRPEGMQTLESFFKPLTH

| Structure (SMILES) | activity change, negative = inhibition | Potency |
| --- | --- | --- |
| Cc1cc2nc(/C(C#N)=C/c3ccncc3)[nH]c2cc1C | inactive: 34.3% | – |
| Cc1cccn2c(=O)c3cc(C(N)=S)c(=N)n(CCCN4CCOCC4)c3nc12 | inactive: 35.2% | – |
| O=C(O)c1cccc(CN2C(=O)S/C(=C/c3cccc([N+](=O)[O-])c3)C2=O)c1 | – | active: 79.4 µM |
| C(=N\n1cnnc1)/c1nc2ccccc2[nH]1 | inactive: 17.5% | – |
| O=C(C1Cc2ccccc2CN1C(=O)c1ccccc1)N1CCN(c2ccccc2)CC1 (stereo unspecified) | – | active: 79.4 µM |
| O=C(NCc1cccs1)c1ccc2c(c1)sc1nc(-c3ccc(F)cc3)cn12 | inactive: 18.9% | – |
| CCC(C)[C@H](NC(=O)NCCC1=CCCCC1)C(=O)O (stereo partly specified) | inactive: 31.2% | – |
| COCCN1C(=O)C(=O)/C(=C(/O)c2cccc(OC)c2)C1c1ccco1 (stereo unspecified) | – | active: 10 µM |
| Cc1ccc(Cl)cc1NC1=C/C(=N\S(=O)(=O)c2cccs2)c2ccccc2C1=O | inactive: -16.2% | – |
| COc1ccc(N2CCN(Cc3nc4c(c(=O)[nH]c(=O)n4C)n3Cc3ccccc3F)CC2)cc1 | inactive: 19.1% | – |
| Cc1ccc2nc(-c3ccccn3)c(Nc3ccccc3C)n2c1 | inactive: -28.9% | – |
| CCc1ccc(-c2cc(C)no2)cc1S(=O)(=O)NCc1ccco1 | inactive: -5.54% | – |
| O=C(CSc1nc2c([nH]c3ccccc32)c(=O)n1-c1ccccc1)c1ccc(Cl)cc1 | inactive: 18.8% | – |
| COc1ccc(/C=C2\SC(c3ccc(C)cc3)=NC2=O)cc1OC | inactive: -4.35% | – |
| CN(Cc1nc(-c2ccccc2)no1)C1CCOCC1 | inactive: 18.8% | – |
| CCCc1cc(=O)oc2c(C)c(OCc3nn[nH]n3)ccc12 | inactive: 31.4% | – |
| CNc1ccc(Br)cc(C(=O)/C=C/c2cccc(Cl)c2Cl)c1=O | – | active: 44.7 µM |
| CCOc1ccccc1CNS(=O)(=O)c1ccc(-c2cnc(C3CC3)o2)cc1 | inactive: -10% | – |
| CCOC(=O)/C(=C/c1ccc(OC(F)F)cc1)C1=Nn2c(nnc2-c2ccc(Cl)cc2)SC1 | inactive: -9.32% | – |
| C[C@H](CO)N1C[C@H](C)[C@@H](CN(C)C(=O)Nc2ccc(C(F)(F)F)cc2)Oc2c(NC(=O)c3ccncc3)cccc2C1=O | inactive: -12.6% | – |
| CC(C)C[C@@H](CO)N(Cc1ccccc1)S(=O)(=O)N(Cc1ccccc1)[C@H](CO)CC(C)C | inactive: -12.4% | – |
| CC(=O)COC(=O)C1CCN(S(=O)(=O)c2cc([N+](=O)[O-])ccc2Cl)CC1 | – | active: 31.6 µM |
| CC(C)CC(=O)Nc1nnc(S(=O)(=O)N(C)c2ccc(Cl)cc2)s1 | inactive: -18.8% | – |

| Structure (SMILES) | activity change, negative = inhibition | Potency |
| --- | --- | --- |
| COc1cc(/C=N/Nc2ccc(Cl)c(C(=O)O)c2)ccc1OC(=O)c1cccs1 | – | active: 79.4 µM |
| COc1ccc(C)cc1NC(=O)CN1CCCN(S(=O)(=O)c2ccc(Br)cc2)CC1 | inactive: -20.1% | – |
| O=C(CSc1nnc2ccc(-c3ccccn3)nn12)NCC1CCCO1 (stereo unspecified) | inactive: 43.5% | – |
| CCCCCCN1C[C@@H](n2cc(-c3ccc(F)cc3)nn2)[C@H](O)C[C@@H]1c1ccc(Cl)cc1 | inactive: -23.2% | – |
| CN(CCC#N)C(=O)COC(=O)c1c2c(nc3ccccc13)/C(=C\c1ccco1)CC2 | – | active: 11.2 µM |
| CC(=O)c1c(C)oc(C)c1CSCc1ccc(C(=O)O)o1 | – | active: 6.31 µM |
| CCc1ccc(-c2cc(C)no2)cc1S(=O)(=O)Nc1ccc(Cl)cn1 | inactive: 11.1% | – |
| C/C=C/C=C\C(=O)Nc1cccc(C2=NOC3(C2)C[C@H](C(N)=O)N(C(=O)CC#N)C3)c1 (stereo partly specified) | – | active: 44.7 µM |
| CCOC(=O)c1c(S(=O)(=O)NCC(=O)NCc2ccccc2)c(C)n(C)c1C | inactive: -3.1% | – |
| O=C(CCc1nnc2ccc(NCc3ccco3)nn12)Nc1ccccn1 | – | active: 28.2 µM |
| O=c1cc2oc3cc(O)c(O)cc3c(-c3ccccc3[N+](=O)[O-])c-2cc1O | – | active: 0.794 µM |
| CC(C)(C)OC(=O)N1CCC[C@H]1C(=O)N/N=C/c1cccc2nccnc12 | inactive: 30.9% | – |
| Cc1c(-n2c(SCC(=O)O)nnc2-c2ccccc2Br)c(=O)n(-c2ccccc2)n1C | inactive: 47.8% | – |
| Cc1cc2nncn2c2ccccc12 | inactive: -13.4% | – |
| CCN1CCN(Cc2ccc(NC(=O)c3ccc(C)c(NC(=O)N4CCNC4=O)c3)cc2C(F)(F)F)CC1 | – | inactive |
| COC(=O)/C=C1\SC(=Nc2ccc(Cl)c(Cl)c2)NC1=O | inactive: -12.6% | – |
| CCN(CC(=O)NCCC1=CCCCC1)S(=O)(=O)c1ccccc1 | inactive: 32.3% | – |
| CC1(C)CC(=O)C2=C(C1)N(CCN1CCOCC1)C1=C(C(=O)CC(C)(C)C1)C2c1cccc(F)c1 | inactive: 2.1% | – |
| CC1=NOC(=O)/C1=C\c1ccc(-c2ccc(Cl)cc2Cl)o1 | – | active: 14.1 µM |
| CCC(=O)Nc1c(C#N)c2nc3ccccc3nc2n1-c1ccc(C)cc1 | inactive: 45.9% | – |
| O=C(O)c1ccc(N2CCCC2=O)cc1 | inactive: 7.8% | – |
| CC1=NN(c2ccccc2)C(=O)C1/C=C1/NC(=S)NC1=O (stereo unspecified) | inactive: 4.87% | – |
| CCOC(=O)c1cc2c(=O)n3cccc(C)c3nc2n(Cc2ccco2)c1=NC(=O)c1ccccc1 | inactive: 14.7% | – |
